Test results from the supplement of paper PMC3694890.
± gives the uncertainty stated by the source. Some of the results follow. Phosphotyrosine is written y.

Molecular target: GRB2 (endogenous complexes from cell lysate), P62993
Assay: GRB2 complex binding differential signal (pY peptide minus Ala control peptide) (fluorescence intensity units); higher = stronger GRB2 complex binding
Conditions: MCF7
Method: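 In situ synthesized µParaflo PepArray of 6-mer peptides, each starting with an N-terminal phosphotyrosine (lowercase 'y' = pY) followed by 5 native residues. Peptides are tethered to glass through a long linker. Chips were incubated overnight at 4°C with total cell lysate (1 mg in 1 mL) from MCF10A, MCF7, T47D or MDA-MB-231 cells. Bound endogenous GRB2-containing complexes were detected with rabbit anti-GRB2 and an Alexa647 secondary antibody. Signals are background-subtracted and averaged over replicate spots, then the matched Ala-substituted control peptide signal is subtracted (differential signal).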
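Also: phosphopeptide probes on the chip at 1–4 µM, lysate proteins bound in 20 mM Tris pH 7.0 buffer with 140 mM NaCl, 1% Triton X-100 and 5% glycerol.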

| Binder | GRB2 complex binding differential signal |
| --- | --- |
| ySSDPT [EGFR_1069/A1] | 2640 ± 920 |
| yINQSV [EGFR_1092/A1] | 52800 ± 6800 |
| yHNQPL [EGFR_1110/A1] | 19500 ± 4300 |
| yQDPHS [EGFR_1125/A1] | 8050 ± 1600 |
| yLNTVQ [EGFR_1138/A1] | 16700 ± 3400 |
| yQQDFF [EGFR_1172/A1] | 260 ± 600 |
| yLRVAP [EGFR_1197/A1] | 1970 ± 790 |
| yNPTTY [EGFR_270/A1] | -1590 ± 740 |
| yEMEED [EGFR_316/A1] | 141 ± 260 |
| yKGLWI [EGFR_727/A1] | -61.6 ± 260 |
| yVTAES [ABL2_231/A1] | 2940 ± 760 |
| yVMASV [EGFR_764/A1] | 742 ± 1100 |
| yHAEGG [EGFR_869/A1] | 1100 ± 320 |
| yDGIPA [EGFR_915/A1] | 1340 ± 810 |
| yMIMVK [EGFR_944/A1] | 865 ± 1000 |
| yLVIQG [EGFR_978/A1] | 36.4 ± 220 |
| yRALMD [EGFR_998/A1] | 2790 ± 2200 |

Same assay, conditions: MCF10A

| Binder | GRB2 complex binding differential signal |
| --- | --- |
| ySSDPT [EGFR_1069/A1] | 2380 ± 1100 |
| yINQSV [EGFR_1092/A1] | 16200 ± 16000 |
| yHNQPL [EGFR_1110/A1] | 11800 ± 1300 |
| yQDPHS [EGFR_1125/A1] | 6280 ± 1800 |
| yLNTVQ [EGFR_1138/A1] | 27800 ± 6300 |
| yQQDFF [EGFR_1172/A1] | 392 ± 320 |
| yLRVAP [EGFR_1197/A1] | 532 ± 1700 |
| yNPTTY [EGFR_270/A1] | 62.4 ± 410 |
| yEMEED [EGFR_316/A1] | 110 ± 370 |
| yKGLWI [EGFR_727/A1] | 253 ± 860 |
| yVTAES [ABL2_231/A1] | 2470 ± 440 |
| yVMASV [EGFR_764/A1] | 758 ± 250 |
| yHAEGG [EGFR_869/A1] | 1070 ± 1100 |
| yDGIPA [EGFR_915/A1] | 1000 ± 270 |
| yMIMVK [EGFR_944/A1] | 445 ± 300 |
| yLVIQG [EGFR_978/A1] | 163 ± 340 |
| yRALMD [EGFR_998/A1] | 940 ± 310 |

Same assay, conditions: MDA-MB-231

| Binder | GRB2 complex binding differential signal |
| --- | --- |
| ySSDPT [EGFR_1069/A1] | 1880 ± 400 |
| yINQSV [EGFR_1092/A1] | 6590 ± 850 |
| yHNQPL [EGFR_1110/A1] | 1910 ± 500 |
| yQDPHS [EGFR_1125/A1] | 1600 ± 520 |
| yLNTVQ [EGFR_1138/A1] | 8510 ± 1700 |
| yQQDFF [EGFR_1172/A1] | 955 ± 400 |
| yLRVAP [EGFR_1197/A1] | 767 ± 440 |
| yNPTTY [EGFR_270/A1] | 142 ± 250 |
| yEMEED [EGFR_316/A1] | 121 ± 230 |
| yKGLWI [EGFR_727/A1] | 449 ± 310 |
| yVTAES [ABL2_231/A1] | 1140 ± 410 |
| yVMASV [EGFR_764/A1] | 1440 ± 440 |
| yHAEGG [EGFR_869/A1] | 678 ± 420 |
| yDGIPA [EGFR_915/A1] | 622 ± 420 |
| yMIMVK [EGFR_944/A1] | 617 ± 290 |
| yLVIQG [EGFR_978/A1] | 634 ± 1100 |
| yRALMD [EGFR_998/A1] | 799 ± 380 |

Same assay, conditions: T47D

| Binder | GRB2 complex binding differential signal |
| --- | --- |
| ySSDPT [EGFR_1069/A1] | 1340 ± 1100 |
| yINQSV [EGFR_1092/A1] | 22200 ± 4000 |
| yHNQPL [EGFR_1110/A1] | 7820 ± 2800 |
| yQDPHS [EGFR_1125/A1] | 1720 ± 1200 |
| yLNTVQ [EGFR_1138/A1] | -3170 ± 8800 |
| yQQDFF [EGFR_1172/A1] | 2540 ± 1200 |
| yLRVAP [EGFR_1197/A1] | 531 ± 1500 |
| yNPTTY [EGFR_270/A1] | 356 ± 1200 |
| yEMEED [EGFR_316/A1] | 294 ± 1000 |
| yKGLWI [EGFR_727/A1] | 616 ± 1400 |
| yVTAES [ABL2_231/A1] | 1200 ± 1100 |
| yVMASV [EGFR_764/A1] | 2660 ± 1000 |
| yHAEGG [EGFR_869/A1] | 1160 ± 1300 |
| yDGIPA [EGFR_915/A1] | 1580 ± 1200 |
| yMIMVK [EGFR_944/A1] | 952 ± 1300 |
| yLVIQG [EGFR_978/A1] | 513 ± 1100 |
| yRALMD [EGFR_998/A1] | 2080 ± 1400 |
